Laboratory results as given in the GPR68 mutational scans of Howard et al. (2025).
The least precise scores are not listed. Two further conditions of the source, in which the scores hardly spread, are not listed. Names with del lack the residues named; names with ins carry added residues between the positions named. For some assays here: How much ogerin was present is not stated here.

B1: GPR68, Q15743 (parent)
chain: MGNITADNSSMSCTIDHTIHQTLAPVVYVTVLVVGFPANCLSLYFGYLQIKARNELGVYLCNLTVADLFYICSLPFWLQYVLQHDNWSHGDLSCQVCGILLYENIYISVGFLCCISVDRYLAVAHPFRFHQFRTLKAAVGVSVVIWAKELLTSIYFLMHEEVIEDENQHRVCFEHYPIQAWQRAINYYRFLVGFLFPICLLLASYQGILRAVRRSHGTQKSRKDQIQRLVLSTVVIFLACFLPYHVLLLVRSVWEASCDFAKGVFNAYHFSLLLTSFNCVADPVLYCFVSETTHRDLARLRGACLAFLTCSRTGRAREAYPLGAPEASGKSGAQGEEPELLTKLHPAFQTPNSPGSGGFPTGRLA

What was measured:
[1] = variants of: B1; test: cAMP reporter score (Enrich2 score, wild type = 0); higher = more signal; HEK293T, FACS bins
[2] = variants of: B1; test: surface expression score (Enrich2 score, wild type = 0); higher = more signal; HEK293T, FACS bins

Row | Variant | cAMP reporter score ([1]; pH 5.5) | cAMP reporter score ([1]; pH 6) | cAMP reporter score ([1]; pH 6, modulator: ogerin) | cAMP reporter score ([1]; pH 6.5, modulator: ogerin) | surface expression score [2]
1 | H20_T22del | -1.34 | -0.453 | -1.11 | -0.7 | -1.97
2 | A24_P25del | -1.3 | -1.14 | -1.72 | -0.968 | -1.9
3 | Q21_T22insG | -0.655 | -0.638 | -1.65 | -1.39 | -1.97
4 | T18_H20del | -0.485 | – | – | – | –
5 | Q21F | -0.413 | -0.859 | -1.06 | -0.768 | 0.783
6 | Q21G | -0.218 | – | -0.682 | -0.293 | 0.321
7 | Q21E | 0.428 | -0.197 | 0.012 | -0.524 | -0.019
8 | Q21P | -0.89 | – | – | -1.48 | -0.698
9 | Q21H | 1.06 | -1.07 | 1.28 | -0.345 | 1.93
10 | Q21R | -0.365 | -0.946 | -0.555 | -0.81 | 0.298
11 | Q21D | 0.408 | -1.72 | -0.435 | -0.541 | -1.28
12 | Q21K | -1.36 | -1.06 | -1.5 | -1.07 | 0.804
13 | Q21V | 0.484 | -0.405 | -0.505 | -0.761 | 0.646
14 | Q21I | -0.518 | 0.357 | -0.215 | -0.491 | 0.292
15 | Q21W | -0.236 | -1.03 | -0.367 | -1.01 | 0.316
16 | Q21C | -1.04 | -0.734 | -1.38 | -1.37 | -0.866
17 | Q21N | -1.02 | – | -1.27 | -0.74 | 0.859
18 | Q21S | -0.358 | -0.292 | -1.89 | -0.941 | 0.208
19 | Q21L | 0.144 | -0.656 | 0.457 | -0.112 | 1.9
20 | Q21Y | -1.04 | -1.35 | -1.35 | -0.941 | -0.125
21 | Q21T | -0.652 | -0.476 | -0.642 | -0.679 | 0.183

Row | Variant | cAMP reporter score ([1]; pH 5.5) | cAMP reporter score ([1]; pH 6) | cAMP reporter score ([1]; pH 6, modulator: ogerin) | cAMP reporter score ([1]; pH 6.5, modulator: ogerin) | surface expression score [2]
22 | Q21M | -0.071 | -1.18 | -0.727 | -0.645 | -0.132
23 | Q21A | 0.552 | -0.054 | -0.199 | -0.831 | 1.2
24 | V27_Y28insGS | -1.36 | -1.38 | -1.89 | -1.3 | -2.43
25 | Q21_T22insGS | -0.251 | -2.07 | -1.59 | -0.627 | -2.37
26 | T22del | -1.39 | -1.07 | -1.43 | -0.759 | -0.789
27 | I19_H20insG | -0.89 | -0.912 | -1.38 | -0.487 | -1.64
28 | T22_L23insG | -1.9 | -0.746 | -1.22 | -0.672 | -1.52
29 | P25_V26insG | -1.48 | -1.37 | -1.36 | -1.06 | -2.21
30 | V26del | -1.84 | -0.894 | -1.81 | -1.38 | -1.56
31 | V26_V27insGS | -0.741 | -1.25 | -0.981 | -0.947 | -2.09
32 | V27F | -0.677 | -0.411 | – | -1.46 | -0.122
33 | V27R | -1.55 | -0.837 | -1.9 | -1.48 | -2.27
34 | V27L | -0.288 | -0.285 | -0.058 | -0.164 | -1.12
35 | V27K | -1.79 | -0.516 | -1.96 | -1.35 | -2.24
36 | V27W | 0.046 | 0.084 | -0.605 | -0.64 | -0.658
37 | V27D | -1.19 | -0.434 | -1.47 | -0.94 | -1.18
38 | V27C | -0.832 | -0.316 | – | -2.12 | -2.77
39 | V27M | -0.963 | -0.764 | -1.25 | -0.63 | -1.61
40 | V27I | 0.434 | 0.966 | 0.43 | 0.93 | 0.94
41 | V27G | -1.77 | -0.659 | -1.36 | -0.862 | -2.22
42 | V27H | -1.26 | -0.811 | -0.893 | -0.856 | -2.57

Row | Variant | cAMP reporter score ([1]; pH 5.5) | cAMP reporter score ([1]; pH 6) | cAMP reporter score ([1]; pH 6, modulator: ogerin) | cAMP reporter score ([1]; pH 6.5, modulator: ogerin) | surface expression score [2]
43 | V27E | -1.07 | – | -1.49 | -0.905 | -2.77
44 | V27N | -1.1 | 0.252 | -0.798 | – | -2.59
45 | V27Y | -2.32 | -0.625 | -1.49 | -0.601 | -2.57
46 | V27Q | -1.44 | -1.35 | -2.14 | -0.356 | -2.33
47 | V27A | -1.73 | -0.862 | – | -1.45 | -1.6
48 | V27P | -1.36 | -0.485 | -1.59 | -1.05 | -1.99
49 | V27S | -1.2 | -1.07 | -1.99 | -1.35 | –
50 | Y28A | -0.844 | -0.575 | -1.69 | -0.522 | 0.37
51 | Y28C | -1.61 | -0.723 | -1.72 | -1.23 | -1.85
52 | T18Q | -0.037 | 0.356 | 0.874 | -0.012 | -0.648
53 | T18S | -0.313 | -0.814 | -0.346 | 0.37 | -0.113
54 | T18V | 0.849 | 1.18 | 1.11 | 1.65 | 0.481
55 | T18L | 1.06 | 0.351 | 0.843 | 1.45 | 0.276
56 | T18Y | -0.017 | 0.975 | -0.186 | 0.433 | 0.269
57 | T18G | -0.207 | – | 0.303 | – | -0.536
58 | T18W | 0.782 | 2.22 | 1.6 | 2.67 | 1.67
59 | T18M | 0.038 | 0.278 | 0.449 | 0.904 | -0.216
60 | T18P | -0.288 | -0.722 | -0.182 | -0.667 | -1.05
61 | T18N | 0.485 | -0.345 | 0.13 | 0.225 | -0.337
62 | T18K | -1.11 | 0.09 | -0.347 | 0.643 | -0.545
63 | T18I | 0.337 | 0.549 | 0.245 | 0.594 | -0.215
